In PubChem BioAssay AID485341 (National Center for Advancing Translational Sciences (NCATS), 2010):
The campaign covered roughly 330,000 compounds. About 1,700 (0.52%) were called active. This list was built around the results that the source calls inconclusive (neither active nor inactive); the mix of calls is not that of the screen. Calls follow the shape of the dose curve; as a rule, active = well fitted inhibition curve with a large enough effect; inconclusive = small, poorly fitted or top-dose-only effect; inactive = no such curve, though single readings can be large or run the other way. Where the call is inconclusive, the potency comes from a doubtful curve fit.
Also: nearly all actives have a fitted effect of over 20% in size.
Potency is read from the fitted curve at half-maximal effect; tags tell the direction and shape of the fitted curve.

The molecules below were run against Beta-lactamase (Escherichia coli (strain K12)) (UniProt P00811) (assay: qHTS Inhibitors of AmpC Beta-Lactamase (assay without detergent)). Conditions: AmpC nitrocefin hydrolysis, absorbance 480 nm, 0.0001% Triton; series mostly up to 57.1 µM.
UniProt P00811, sequence (P00811 whole entry, looked up): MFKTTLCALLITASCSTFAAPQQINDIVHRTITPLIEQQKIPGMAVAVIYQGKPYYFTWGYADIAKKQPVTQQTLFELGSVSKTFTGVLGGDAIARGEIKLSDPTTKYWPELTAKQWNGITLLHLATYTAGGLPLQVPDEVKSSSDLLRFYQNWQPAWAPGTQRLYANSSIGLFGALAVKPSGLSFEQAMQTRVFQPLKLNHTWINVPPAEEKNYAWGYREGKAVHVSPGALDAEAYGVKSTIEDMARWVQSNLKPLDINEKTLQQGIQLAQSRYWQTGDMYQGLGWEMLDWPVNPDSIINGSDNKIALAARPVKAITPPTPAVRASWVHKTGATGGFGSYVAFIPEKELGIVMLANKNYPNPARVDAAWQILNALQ
Experimental: NIH Molecular Libraries Probe Production Network [MLPCN] NIH Chemical Genomics Center [NCGC] Assay Provider: Professor Brian Shoichet, UCSF Assay Overview: This aggregation profiling approach exploits the sensitivity of aggregate formation to detergent. Inhibition of b-lactamase is measured in the presence and absence of 0.01% Triton X-100. This particular assay had the prescence of 0.01% Triton X-100. See Pubchem assay "Promiscuous and Specific Inhibitors of AmpC Beta-Lactamase (assay without detergent)" for related screen. Compounds that inhibit only in the absence of detergent are considered likely promiscuous aggregators. A screen of 1,030 compounds was performed in Brian Shoichet's lab in 96-well format. AmpC activity was measured by following the absorbance at 480 nm. Nitrocefin is a chromogenic substrate: while nitrocefin is yellow (lmax 390 nm), the product of its hydrolysis is red (lmax 486 nm, 17,000 M-1). AmpC beta lactamase was provided by Shoichet Lab, UCSF.
Buffer: 20 mM phosphate buffer, pH 7.0 Triton X-100: No Detergent screen: 0.0001%, Detergent screen: 0.01%. Reagents/Controls: Buffer in columns 3 and 4 as negative control (no enzyme). 5.3 nM AmpC in columns 1, 2, 5-48. Titration of UCSF compound 9 control (from 10 mM, then 1:2) pin-transferred to column 2. Column 1 is neutral (100% activity). Assay Steps: Six uL of reagents were dispensed to 1536-well Greiner black clear bottom plates. Compounds and controls (23 nL) were transferred via Kalypsys PinTool. The plates were incubated for 15 min at room temperature, and then 2 uL of 800 uM solution of nitrocefin was added to start the reaction. The plates were immediately transferred to and read every 20 seconds for 4 min on ViewLux (Perkin-Elmer) High-throughput CCD imager using 480 nm absorbance protocol. During dispense, reagent bottles were kept submerged into 4 deg C water bath. Keywords: NIH Roadmap, MLSCN, MLI, MLSMR, qHTS, NCGC, AmpC Beta-Lactamase, Aggregation
In the case of `Cc1ccc(S(=O)(=O)Oc2ccc(/C=C3\C(=N)N4N=C(S(C)(=O)=O)SC4=NC3=O)cc2)cc1`, the Potency is reported as inconclusive: 7.94 µM [inhibitor, full curve, poor fit]. In the case of `COc1cc(/C=C2/C(=N)N3C(=NC2=O)SN=C3S(C)(=O)=O)ccc1OS(=O)(=O)c1ccccc1`, the Potency is reported as inconclusive: 12.6 µM [inhibitor, partial curve]. For `Cc1cc(C)cc(-n2cccc2/C=C2/C(=N)N3C(=NC2=O)SN=C3S(C)(=O)=O)c1`, the Potency was inconclusive: 3.98 µM [inhibitor, partial curve]. In the case of `O=C(Nc1ccc(-c2nc3ccccc3[nH]2)cc1)c1ccccc1NS(=O)(=O)c1ccc(F)cc1`, the Potency is reported as inconclusive: 3.16 µM [inhibitor, partial curve]. With `O=C1NN(c2ccc(F)c(Cl)c2)C(=O)/C1=C\c1cccc(OC(=O)c2cccs2)c1` the Potency was inconclusive: 15.8 µM [inhibitor, partial curve].
